In all, about 43,000 compounds went through this assay and about 200 (0.47%) were called active. About 12% were inconclusive and are not listed. Calls come from the whole dose curve; as a rule, active = well fitted cell-killing curve with a large enough effect; inconclusive = small, poorly fitted or top-dose-only effect, or effect the other way; inactive = flat fitted curve, though single readings scatter. The list shows a part of the results.
Experiment: Cell viability qHTS assay in S16 Pmp22-F2sN cells; note: nearly all actives have a fitted effect of over 65% in size
Details: S16 Pmp22-F2sN Schwann cells (luciferase reporters placed in the Pmp22 gene) viability, CellTiter-Glo, 24 h; series mostly up to 57.5 µM; activity change, negative = cytotoxicity: at the top concentration
Procedure, shortened: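 Seed 500-1,000 S16 Pmp22-F2sN cells per well in phenol-red-free DMEM with 10% heat-inactivated FBS; pin-add 23 nL compound; incubate 24 h at 37C; add CellTiter-Glo, wait 15 min protected from light; read luminescence.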
% is set by controls: 0 for no effect and ±100 for the full control effect.

SMILES | activity change, negative = cytotoxicity
Cc1ccc(S(=O)(=O)c2nnn3c2nc(N2CCCC2)c2sccc23)cc1C | inactive: 9.54%
Cc1ccc(S(=O)(=O)c2nnn3c2nc(N2CCN(c4ccccc4F)CC2)c2cc(Cl)ccc23)cc1C | inactive: 9.29%
O=C(c1ccc2c(c1)N(Cc1cccc(F)c1)C(=O)c1ccccc1S2)N1CCOCC1 | inactive: -9.17%
COc1ccc(OC)c(NC(=O)C2=C(C)C(=O)OC23CCCCCC3)c1 | inactive: -4.47%
CC1=C(C#N)C(NC(=O)c2ccccc2Cl)(C(F)(F)F)C(=O)N1 (stereo not given) | inactive: -4.32%
CCc1ccc(NC(=O)c2sc3nc(C)c(Cl)c(C)c3c2NC(=O)c2ccccc2OC)cc1 | inactive: -0.175%
O=C1CS(=O)(=O)C2(C(=O)N(Cc3ccccc3)c3ccccc32)N1c1ccccc1 (stereo not given) | inactive: 3.91%
Cc1ccc(CCNC(=O)c2ccc3c(c2)nc2n3CCC(C)C2)cc1 (stereo not given) | inactive: 3.19%
COc1cc2c(cc1OC)C(COc1ccccc1OC)N(C(=O)COc1ccc(Cl)cc1)CC2 (stereo not given) | inactive: -4.53%
O=C(C1CCN(c2ncnc3c2nc2n3CCCCC2)CC1)N1CCN(c2cccc(Cl)c2)CC1 | inactive: -27.6%
COc1ccc(OC)c(CNC(=O)Cc2ccc(NC(=O)N3CCSc4ncccc43)cc2)c1 | inactive: -1.86%
CCOC(=O)C1(C)C=C(Nc2cccc(C(=O)O)c2)C(=O)N1c1cccc(C(=O)O)c1 (stereo not given) | inactive: 0.774%
COc1ccc(-c2noc(-c3ccc(N4CCN(c5ccccc5)CC4)c([N+](=O)[O-])c3)n2)cc1OC | inactive: -1.8%
CCCCc1nn2c(=O)cc(COC(=O)c3ccc(NC(=O)c4ccccc4C)cc3)nc2s1 | inactive: 19.8%
Cc1ccc(CNS(=O)(=O)c2ccc3[nH]c4c(c3c2)CCCC4)cc1 | inactive: -12.6%
Cc1cc(F)ccc1NS(=O)(=O)c1ccc(-n2cccn2)cc1 | inactive: -14.3%
Cc1cc(C)n(CCc2nc3c4ccccc4nc(N4CCN(c5ccccc5)CC4)n3n2)n1 | inactive: 12.2%
O=C(CCn1cnnn1)Nc1ccc(F)cc1 | inactive: -3.22%
Cc1ccc(NC(=O)CSc2ccc(-c3cccs3)nn2)cc1Cl | inactive: 21.4%
CN(c1ccccc1)S(=O)(=O)c1ccc(NC(=O)c2cc(=O)c3ccccc3o2)cc1 | inactive: 9.57%
COCC(=O)NCc1nc2cccnc2n1Cc1ccc(F)cc1 | inactive: 0.4%
Cc1noc(-c2ccc(N3CCCCC3)c([N+](=O)[O-])c2)n1 | inactive: -21.6%
Cc1ccccc1CCNC(=O)c1ccc2c(c1)nc1n2CCC(C)C1 (stereo not given) | inactive: 22.2%
Cc1ccc(Cn2c(CNS(=O)(=O)c3ccc(F)c(Cl)c3)nc3cccnc32)cc1 | inactive: -28.4%

SMILES | activity change, negative = cytotoxicity
COc1ccc(-n2ncc(C(=O)NCCc3ccsc3)c2C2CCN(C(=O)OC(C)(C)C)CC2)cc1 | inactive: -20.7%
COc1cc(C2C(C(=O)Nc3ccccc3C)=C(C)Nc3ncnn32)ccc1OCC(N)=O (stereo not given) | inactive: 6.89%
O=C(NCC(c1ccc2c(c1)OCO2)N1CCOCC1)c1cccc(Cl)c1 (stereo not given) | inactive: -9.3%
CCOc1ccccc1NC(=O)C1CCN(S(=O)(=O)c2ccc3c(c2)CC(C)N3C(C)=O)CC1 (stereo not given) | inactive: -17%
COc1ccc2c(C)cc(SCC(=O)Nc3nsc(-c4ccccc4C)n3)nc2c1 | inactive: 3.15%
CCOC(=O)c1ccccc1NC(=O)Cn1c(=O)n(-c2cccc(C)c2)c(=O)c2c1c1cc(C)ccc1n2C | inactive: 0.401%
CCOc1ccc(Cn2c(CNS(=O)(=O)c3ccc(Cl)s3)nc3cccnc32)cc1 | inactive: 0.893%
COc1cccc(N2CCN(S(=O)(=O)c3ccc(-n4cnnn4)cc3)CC2)c1 | inactive: -1.04%
O=C(NCc1ccc(Cl)cc1)C(=O)NCC(c1cccs1)S(=O)(=O)c1cccs1 (stereo not given) | inactive: 15%
O=C(Nc1cc(C(F)(F)F)ccc1Cl)c1nc2ccccc2nc1N1CCCCC1 | inactive: -0.792%
COC(=O)c1cccnc1-n1c(=O)c2cccnc2n(CC(=O)Nc2ccccc2F)c1=O | inactive: -6.62%
CCc1ccccc1NC(=O)c1sc2nc3c(cc2c1N)CN(Cc1ccccc1)CC3 | inactive: -26.4%
CCOC(=O)c1c(C)oc2nc(C)nc(NCc3ccc(OC)cc3OC)c12 | inactive: 4.43%
O=C(CSc1nncn2c1cc1sccc12)Nc1ccc(Br)cc1F | inactive: 0.28%
Cc1cc(C)cc(NC(=O)C(=O)NCC(c2cccnc2)N2CCc3ccccc3C2)c1 (stereo not given) | inactive: 0.637%
Clc1cccc(-n2ncc3c(N4CCC(Cc5ccccc5)CC4)ncnc32)c1 | inactive: -2.07%
CCCCNC(=O)C1CCC(Cn2c(=O)c3sccc3n(CC(=O)N3CCCC3)c2=O)CC1 (stereo not given) | inactive: 5.41%
CCc1ccc(NC(=O)CCn2nc(C)c(S(=O)(=O)N3CCCCC3)c2C)cc1 | inactive: -2.33%
O=C(NCCc1ccccc1)c1sc2ncccc2c1-n1cccc1 | inactive: -19.6%
CCCc1cnc2c(c1SCC(=O)N1CCC(C)CC1)c(=O)n(C)c(=O)n2C | inactive: -14%
CCC1CCCCN1C(=O)Cn1c(=O)oc2cc(S(=O)(=O)N3CCCCC3)ccc21 (stereo not given) | inactive: -7.89%
NC(=O)CSc1oc(-c2ccco2)nc1S(=O)(=O)c1ccc(Cl)cc1 | inactive: -2.24%
Cc1ccc(NC(=O)c2cc3cc(C)ccc3n2C)cc1 | inactive: 2.88%
CCOC(=O)c1ccc(NC(=O)Cn2c(=O)cc(C)c3c(C)nn(-c4cccc(F)c4)c32)cc1 | inactive: -0.997%

SMILES | activity change, negative = cytotoxicity
O=C(Nc1nc2n(n1)C(c1ccc(F)cc1)C=C(c1ccccc1)N2)c1ccc(Cl)cc1 (stereo not given) | inactive: -2.43%
Cc1ccc(NC(=O)C(Cc2ccccc2)NS(=O)(=O)c2ccc3c(c2)oc(=O)n3C)cc1F (stereo not given) | inactive: -2.11%
COc1cccc2c1cc1c(=O)n(CC(=O)NC3CCCCC3)nc(C)n12 | inactive: 11.7%
COc1cc(C(=O)N2CCN(c3ccc(Nc4ccc(C)cc4)nn3)CC2)cc(OC)c1OC | inactive: -1.17%
Cc1ccc(C(=O)Nc2cccc(OCc3cc(=O)n4c5c(sc4n3)CCCC5)c2)cc1 | inactive: 1.22%
COC(=O)Cn1nc(C)c2c(C)n(-c3ccccc3)nc2c1=O | inactive: 16.9%
COCCCNC(=O)CCC(=O)N1Cc2cccc(OC)c2Oc2ncccc21 | inactive: 0.701%
CNC(=O)C1CCC(Cn2c(=O)c3sccc3n(Cc3ccc(F)cc3)c2=O)CC1 (stereo not given) | inactive: -1.64%
CC1(C(=O)Nc2cccc(Br)c2)Cc2ccccc2C(=O)O1 (stereo not given) | inactive: -7.32%
CC(=O)N1CCCc2cc(S(=O)(=O)N3CCC(C(=O)NC4CCC(C)CC4)CC3)ccc21 (stereo not given) | inactive: -1.06%
CCc1ccc(NC(=O)CSc2nccn2-c2ccc(OC)cc2)cc1 | inactive: -2.26%
Cc1ccccc1OCCSc1nc2ccc(NC(=O)c3ccccc3)cc2s1 | inactive: 2.47%
CCCc1cc(=O)oc2c3c(ccc12)OCN(Cc1ccc(OC)cc1)C3 | inactive: 3.03%
CCn1c(C(=O)NCc2ccccc2C)cc2oc3ccccc3c21 | inactive: -10.2%
O=C(Nc1cccc(C(=O)OCc2cc(=O)n3nc(C4CC4)sc3n2)c1)c1cccc(F)c1 | inactive: 2.82%
CCOC(=O)CSc1ccc2nnc(CCNS(=O)(=O)c3ccccc3)n2n1 | inactive: 5.29%
Cc1ccc(CCNC(=O)C(NS(=O)(=O)c2ccc3c(c2)oc(=O)n3C)C(C)C)cc1 (stereo not given) | inactive: -4.85%
Cc1ccc(N(CC(=O)N2CCN(c3ccccc3F)CC2)S(=O)(=O)c2c(C)noc2C)cc1 | inactive: 2.98%
COc1ccc(NC(=O)CSc2nncn3c2cc2oc(C)cc23)cc1OC | inactive: 14.2%
Cc1ccc(N(CC(=O)Nc2cccc(F)c2)S(=O)(=O)c2cccs2)cc1 | inactive: 10.3%
COc1ccc(Cn2ccn(Cc3cccc(C)c3)c(=O)c2=O)cc1 | inactive: 0.627%
COc1cc2c(cc1OC)C(COc1ccc3c(C)cc(=O)oc3c1)N(C(=O)c1cccc(C)c1)CC2 (stereo not given) | inactive: -9.4%
CCOc1ccc(-n2c(SCC(=O)NCC3CCCO3)nc3c([nH]c4ccccc43)c2=O)cc1 (stereo not given) | inactive: 4.98%
O=C(NCCc1ccccc1)c1ccc2c(c1)N(Cc1c(F)cccc1Cl)C(=O)CS2 | inactive: 8.65%

SMILES | activity change, negative = cytotoxicity
Cn1c(=O)c(=O)n(C)c2cc(S(=O)(=O)N3CCCC3C(=O)Nc3ccccc3F)ccc21 (stereo not given) | inactive: 14.8%
Cc1ccc(NC(=O)c2oc3ccc(S(=O)(=O)N4CCCCCC4)cc3c2C)cc1Cl | inactive: -10.4%
CC(C)CSc1nnc(-c2ccccc2)c(-c2ccccc2)n1 | inactive: -2.69%
Cc1ccc2oc(=O)c3cc(C(=O)Nc4ccc(F)cc4F)sc3c2c1 | inactive: 20.4%
COc1ccc(CCNC(=O)c2ccc(Cn3c(=O)c4ccccc4n(Cc4cc(C)ccc4C)c3=O)cc2)cc1OC | inactive: 3.07%
Cc1cc(C)c2nc(N3CCCC(C(=O)NCc4cccc(Br)c4)C3)sc2c1 (stereo not given) | inactive: 2.27%
Fc1ccc(Nc2nc3ccccc3c3nncn23)c(Cl)c1 | inactive: 9.46%
CCc1ccc(NC(=O)C2CCC(CNS(=O)(=O)c3ccc4c(c3)CC(C)N4C(C)=O)CC2)cc1 (stereo not given) | inactive: -3.95%
COc1ccccc1OCCn1c(NC(=O)c2ccc(Cl)cc2)nc2ccccc21 | inactive: 1.34%
COc1ccc(-c2nc3ccccc3s2)cc1NC(=O)COc1ccccc1C | inactive: 11.5%
COc1ccc(C)c2sc(N(Cc3cccnc3)C(C)=O)nc12 | inactive: 3.31%
Cc1ccc(Cl)cc1NC(=O)CN1C(=O)c2cccc3cccc1c23 | inactive: 9.45%
COc1ccc(C2CC(=O)c3cc(-c4nc(-c5cccc([N+](=O)[O-])c5)cs4)c(=O)n(-c4ccc(C)c(C)c4)c3C2)cc1 (stereo not given) | inactive: 13.2%
O=C(Nc1c(C(=O)N2CCN(c3ccc(F)cc3)CC2)oc2ccccc12)c1c(F)cccc1F | inactive: -4.42%
CCC1CCCCN1CCCNC(=O)CN1C(=O)c2cccnc2Oc2ccc(Cl)cc21 (stereo not given) | inactive: 8.9%
O=C(Cn1cc(SCc2ccc(C(F)(F)F)cc2)c2ccccc21)N1CCCCCC1 | inactive: -21.7%
Cc1ccc(NC(=O)CSc2nc(C)c(Cc3ccccc3)c(=O)[nH]2)cc1C | inactive: 3.49%
CCOC(=O)C1(C)C=C(Nc2ccc(Br)cc2)C(=O)N1c1ccccc1 (stereo not given) | inactive: 11.3%
Cc1c(C(=O)N(Cc2ccc(N(C)C)cc2)C2CCS(=O)(=O)C2)oc2ccccc12 (stereo not given) | inactive: 2.94%
COc1ccc(OC)c(C2NC(=O)NC(C)=C2C(=O)Nc2cc(C)cc(C)c2)c1 (stereo not given) | inactive: 3.21%
O=C(c1ccc2c(c1)N(Cc1ccccc1)C(=O)c1ccccc1S2(=O)=O)N1CCN(c2ccccc2)CC1 | inactive: -2.59%
Cc1nn(C(C)C(=O)NC2CCCCC2)c(=O)c2c1sc1ccccc12 (stereo not given) | inactive: 6.78%
COc1ccc(CC(=O)NC2CC(=O)N(c3cccc(F)c3)C2)cc1 (stereo not given) | inactive: 4.14%
